Measurements from publication PMC5741900, “CENP-B protects centromere chromatin integrity by facilitating histone deposition via the H3.3-specific chaperone Daxx” (Epigenetics & Chromatin, 2017).

Target: T1, FLAG-HA-CENP-B (UniProt P07199 1-599)
T1 construct: CENP-B (centromere protein B); also called pOZ-CENP-B; source: HEp2 cells stably expressing (pOZ expression vector), chromatin fraction of lysate
T1 sequence (looked up): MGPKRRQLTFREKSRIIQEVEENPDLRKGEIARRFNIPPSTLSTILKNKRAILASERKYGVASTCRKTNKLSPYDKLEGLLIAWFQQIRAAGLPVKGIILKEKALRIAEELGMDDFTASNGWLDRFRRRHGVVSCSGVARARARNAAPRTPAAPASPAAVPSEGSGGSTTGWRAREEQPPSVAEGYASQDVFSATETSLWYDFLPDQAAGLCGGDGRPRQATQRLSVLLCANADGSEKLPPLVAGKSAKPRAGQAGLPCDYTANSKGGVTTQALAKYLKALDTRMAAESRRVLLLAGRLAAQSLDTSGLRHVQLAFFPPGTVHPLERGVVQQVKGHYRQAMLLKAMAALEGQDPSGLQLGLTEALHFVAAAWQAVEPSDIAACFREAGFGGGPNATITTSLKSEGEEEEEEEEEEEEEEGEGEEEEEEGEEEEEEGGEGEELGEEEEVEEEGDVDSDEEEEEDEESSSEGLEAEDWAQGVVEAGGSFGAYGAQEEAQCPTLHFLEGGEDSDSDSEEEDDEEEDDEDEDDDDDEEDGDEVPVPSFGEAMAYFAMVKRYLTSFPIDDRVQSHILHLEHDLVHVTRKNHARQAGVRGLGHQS
Assay: co-IP; anti-FLAG-M2 magnetic beads on the chromatin fraction of HEp2 cells stably expressing FLAG-HA-CENP-B; blot with Daxx and HA antibodies; also after scrambled, SUMO-1 or SUMO-2 siRNA and MG132 (10 µM, 4 h), densitometry relative to control siRNA
Details: partners not purified

- Daxx co-IP with CENP-B after SUMO-1 depletion, relative to control siRNA: 0.7 relative to control siRNA
- Daxx co-IP with CENP-B after SUMO-2 depletion, relative to control siRNA: 0.2 relative to control siRNA
B1: Daxx, endogenous (natural protein, human (endogenous in HEp2))
chain: MATANSIIVLDDDDEDEAAAQPGPSHPLPNAASPGAEAPSSSEPHGARGSSSSGGKKCYKLENEKLFEEFLELCKMQTADHPEVVPFLYNRQQRAHSLFLASAEFCNILSRVLSRARSRPAKLYVYINELCTVLKAHSAKKKLNLAPAATTSNEPSGNNPPTHLSLDPTNAENTASQ[about 200 residues left out]ERKKRRARLQGTSSHSADTPEASLDSGEGPSGMASQGCPSASRAETDDEDDEESDEEEEEEEEEEEEEATDSEEEEDLEQMQEGQEDDEEEDEEEEAAAGKDGDKSPMSSLQISNEKNLEPGKQISRSSGEQQNKGRIVSPSLLSEEPLAPSSIDAESNGEQPEELTLEEESPVSQLFELEIEALPLDTPSSVETDISSSRKQSEEPFTTVLENGAGMVSSTSFNGGVSPHNWGDSGPPCKKSRKEKKQTGSGPLGNSYVERQRSVHEKNGKKICTLPSPPSPLASLAPVADSSTRVDSPSHGLVTSSLCIPSPARLSQTPHSQPPRPGTCKTSVATQCDPEEIIVLSDSD
notes: Daxx, H3.3-specific histone chaperone, detected with Daxx antibodies; also called endogenous Daxx; source: endogenous, HEp2 chromatin fraction of lysate
